# Where “and” joins values, the source holds several entries; their conditions need not be identical. Equal values may be shown once. The shares of active, inactive and inconclusive entries below differ from those in the screen. For some assays here: Potencies of inconclusive entries are doubtful fits and often do not repeat. The source holds several records for some structures; these can differ, active in one and inactive in another. Calls of active or inactive are those of the source. Unless noted, calls follow the shape of the full dose curve.
# What was measured:
# [1] = qHTS assay to identify small molecule antagonists of the estrogen related receptor signaling pathway with the pleiotropic PPARgamma coactivator (PGC) from Tox21 10K library - cell viability counter screen (AID 1224840; active = well fitted cell-killing curve with a large enough effect in the repeat runs, not every such curve was filed as active; inconclusive = weak or mixed curves, or effect the other way; inactive = no such curve, though single readings can be large or run the other way; also: nearly all actives have a fitted effect of over 40% in size; also: potency is read from the fitted curve at half-maximal effect); conditions: PGC/ERR reporter cells viability, CellTiter-Fluor, 17.5 h; series mostly up to 92.4 µM
# Method in brief: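 Cell viability is measured by CellTiter-Fluor fluorescence in PGC/ERR cells that receive compounds after a 6-hour attachment period and are then incubated 17.5 hours at 37 C.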
# [2] = molecular target: Thyrotropin receptor (Homo sapiens) (UniProt P16473); assay: qHTS assay to identify small molecule agonists of the thyroid stimulating hormone receptor (TSHR) signaling pathway (AID 1224843); conditions: TSHR-HEK293 cells, cAMP HTRF, agonist mode, 30 min; activation: at 92.4 µM (top of the series) unless noted; also: nearly all actives have a fitted effect of over 45% in size; also: potency is read from the fitted curve at half-maximal effect; as to activation: % is scaled to controls: 0 for no effect and ±100 for the full control effect
# Method in brief: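 HEK293/TSHR, 800 cells/well; cpd 30 min RT; add cAMP-d2 + anti-cAMP-cryptate, 1 h RT; fluorescence read on plate reader. 15-pt titration, n=3.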
# [3] = qHTS assay to identify small molecule agonists of the hypoxia (HIF-1) signaling pathway - cell viability counter screen (AID 1224844); conditions: HRE-bla ME-180 viability, CellTiter-Glo luminescence, 17 h; series mostly up to 76.8 µM; also: potency is read from the fitted curve at half-maximal effect; nearly all actives have a fitted effect of over 50% in size
# Method in brief: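 Viability counter screen: HRE-bla ME-180 cells plated 5 hrs before compound addition, treated 17 hrs at 37C and 5% CO2, then CellTiter-Glo added after the FRET reporter read; luminescence after 30 min.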
# [4] = qHTS assay to identify small molecule antagonists of the constitutive androstane receptor (CAR) signaling pathway - cell viability counter screen (AID 1224837; active = well fitted curve in the direction sought with a large enough effect in the repeat runs; inconclusive = weak or mixed curves; inactive = no such curve, though single readings can be large; an effect the other way counts as inactive or inconclusive; also: % is scaled to controls: 0 for no effect and ±100 for the full control effect; nearly all actives have a fitted effect of over 45% in size); conditions: HepG2-CYP2B6-hCAR viability, CellTiter-Fluor, 23 h, co-treated with 50 nM CITCO; series mostly up to 92.4 µM
# Method in brief: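 Cells are seeded, rested 4 hr at 37 C/5% CO2, dosed with compound (15-point series) and 50 nM CITCO, incubated a further 23 hr, and then CellTiter-Fluor reagent is added before fluorescence is read. The line is HepG2 with stable hCAR and CYP2B6-2.2kb.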
# [5] = molecular target: Nuclear receptor subfamily 1 group I member 3 (Homo sapiens) (UniProt Q14994); assay: qHTS assay to identify small molecule agonists of the constitutive androstane receptor (CAR) signaling pathway (AID 1224839; active = well fitted curve in the direction sought with a large enough effect in the repeat runs; inconclusive = weak or mixed curves; inactive = no such curve, though single readings can be large; an effect the other way counts as inactive or inconclusive; also: nearly all actives have a fitted effect of over 15% in size; also: potency is read from the fitted curve at half-maximal effect;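 as to activation: HepG2 cells stably carrying human CAR and a CYP2B6 luciferase reporter; % is scaled to controls: 0 for no effect and ±100 for the full control effect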); conditions: HepG2 hCAR CYP2B6-luciferase, agonist mode, 24 h; series mostly up to 92.4 µM
# Method in brief: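 HepG2 cells stably expressing hCAR and a CYP2B6-2.2kb luciferase reporter were treated with compounds at 15 concentrations plus 0.75 uM PK11195 (final) for 24 h at 37 C; luminescence was read after ONE-Glo addition.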
# [6] = molecular target: Nuclear receptor subfamily 1 group I member 3 (Homo sapiens) (UniProt Q14994); assay: qHTS assay to identify small molecule antagonists of the constitutive androstane receptor (CAR) signaling pathway (AID 1224838; active = well fitted curve in the direction sought with a large enough effect in the repeat runs; inconclusive = weak or mixed curves; inactive = no such curve, though single readings can be large; an effect the other way counts as inactive or inconclusive; also: nearly all actives have a fitted effect of over 40% in size; also: potency is read from the fitted curve at half-maximal effect); conditions: HepG2-CYP2B6-hCAR luciferase, CITCO-stimulated, 24 h; series mostly up to 92.4 µM
# Method in brief: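 Luminescence from a CYP2B6-2.2kb promoter reporter in hCAR-expressing HepG2 cells reflects CAR signaling. Cells received compounds at 15 concentrations and 50 nM CITCO (final), then incubated 24 h at 37 C/5% CO2.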
# [7] = qHTS assay to identify small molecule agonists of the constitutive androstane receptor (CAR) signaling pathway - cell viability counter screen (AID 1224836; active = well fitted curve in the direction sought with a large enough effect in the repeat runs; inconclusive = weak or mixed curves; inactive = no such curve, though single readings can be large; an effect the other way counts as inactive or inconclusive; also: potency is read from the fitted curve at half-maximal effect; nearly all actives have a fitted effect of over 45% in size); conditions: HepG2-CYP2B6-hCAR viability, CellTiter-Fluor, 23 h, PK11195 added to every well; series mostly up to 92.4 µM
# Method in brief: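 HepG2 cells stably carrying hCAR and a CYP2B6-2.2kb reporter were plated 4 h, then given compounds at 15 concentrations plus PK11195 (final 0.75 uM). After 23 h at 37 C, viability was read by CellTiter-Fluor fluorescence.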
# [8] = qHTS assay to identify small molecule antagonists of the estrogen related receptor signaling pathway with the pleiotropic PPARgamma coactivator (PGC) from Tox21 10K library (AID 1224841; call rule not given here; also: potency is read from the fitted curve at half-maximal effect; actives are mostly falling curves and most rising ones were filed inactive; nearly all actives have a fitted effect of over 50% in size); conditions: PGC/ERR reporter cell line, ONE-Glo luciferase, 18 h; series mostly up to 92.4 µM
# Method in brief: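 Cells stably carrying the PGC/ERR reporter, seeded at 2,000 per well, received pin-transferred compounds 6 h post-plating. Exposure lasted 18 h at 37 C. Signal: One-Glo luminescence.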
# [9] = qHTS assay to identify small molecule agonists of the estrogen related receptor signaling pathway with the pleiotropic PPARgamma coactivator (PGC) from Tox21 10K library (AID 1224842; active = well fitted curve in the direction sought with a large enough effect in the repeat runs; inconclusive = weak or mixed curves; inactive = no such curve, though single readings can be large; an effect the other way counts as inactive or inconclusive; also: nearly all actives have a fitted effect of over 15% in size; also: potency is read from the fitted curve at half-maximal effect; as to activation: % is scaled to controls: 0 for no effect and ±100 for the full control effect); conditions: PGC/ERR reporter cell line, luciferase ONE-Glo, 18 h; series mostly up to 92.4 µM
# Method in brief: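 PGC/ERR reporter cell line, 2,000 cells per well, incubated 6 h at 37 C before 23 nL compound in DMSO was added. After 18 h at 37 C, One-Glo luminescence read following 30 min at room temperature.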
# Tags tell the direction and shape of the fitted curve or compound fluorescence and quenching.
# UniProt P16473, sequence (P16473 whole entry, looked up): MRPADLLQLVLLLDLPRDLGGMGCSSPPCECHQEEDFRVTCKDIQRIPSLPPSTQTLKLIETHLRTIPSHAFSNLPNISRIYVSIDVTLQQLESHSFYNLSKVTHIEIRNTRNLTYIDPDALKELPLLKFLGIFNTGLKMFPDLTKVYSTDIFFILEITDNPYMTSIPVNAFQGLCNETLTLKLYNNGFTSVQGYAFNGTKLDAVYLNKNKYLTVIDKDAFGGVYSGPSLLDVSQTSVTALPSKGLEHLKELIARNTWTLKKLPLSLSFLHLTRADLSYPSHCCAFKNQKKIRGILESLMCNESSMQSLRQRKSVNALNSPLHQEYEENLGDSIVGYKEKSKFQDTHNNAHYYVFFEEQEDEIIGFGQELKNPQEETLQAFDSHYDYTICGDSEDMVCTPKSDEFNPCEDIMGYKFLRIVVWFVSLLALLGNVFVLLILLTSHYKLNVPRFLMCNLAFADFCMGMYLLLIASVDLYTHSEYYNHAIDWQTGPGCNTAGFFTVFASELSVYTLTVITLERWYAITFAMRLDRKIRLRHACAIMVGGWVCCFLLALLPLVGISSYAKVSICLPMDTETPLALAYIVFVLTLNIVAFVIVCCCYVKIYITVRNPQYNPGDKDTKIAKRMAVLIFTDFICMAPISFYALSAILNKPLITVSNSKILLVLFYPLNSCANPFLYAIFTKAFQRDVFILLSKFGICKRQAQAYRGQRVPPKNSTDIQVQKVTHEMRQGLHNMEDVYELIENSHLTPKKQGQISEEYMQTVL
# UniProt Q14994, sequence (Q14994 whole entry, looked up): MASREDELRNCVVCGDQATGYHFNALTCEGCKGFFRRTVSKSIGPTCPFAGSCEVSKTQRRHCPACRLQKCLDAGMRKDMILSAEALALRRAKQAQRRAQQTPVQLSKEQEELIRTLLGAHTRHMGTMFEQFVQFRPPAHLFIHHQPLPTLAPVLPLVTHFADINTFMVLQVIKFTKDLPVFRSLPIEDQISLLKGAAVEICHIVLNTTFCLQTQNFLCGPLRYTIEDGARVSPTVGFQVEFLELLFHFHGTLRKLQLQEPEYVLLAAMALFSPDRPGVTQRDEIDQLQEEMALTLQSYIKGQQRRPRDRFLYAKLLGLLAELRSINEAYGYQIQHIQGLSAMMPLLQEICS
smiles,measurement,setting,value
O=c1ccc2ccccc2o1,Potency,[1],inactive
CCCCC(CC)COC(=O)/C=C/c1ccc(OC)cc1 (stereo not drawn),activation,[2],inconclusive: -29.2%
OC[C@@H](O)[C@H](O)[C@H](O)[C@@H](O)CO,Potency,[2],inactive
same,Potency,[3],"inconclusive: 4.77 µM [cytotoxic, full curve, poor fit]"
O=C(O)c1ccc([N+](=O)[O-])cc1,Potency,[1],inactive
Clc1ccc2n[nH]nc2c1,Potency,[4],inactive
same,Potency,[2],inactive
CCCCCCO,Potency,[5],inactive
O=C(O)CN(CC(=O)O)CC(=O)O,Potency,[2],inactive
C/C=C/C=N/NC(=O)c1ccncc1,Potency,[6],"inconclusive: 29.8 µM [inhibitor, single point]"
same,Potency,[1],inactive
same,Potency,[3],"inconclusive: 26.8 µM [cytotoxic, single point]"
CC(=O)O[C@]1(C(C)=O)CC[C@H]2[C@@H]3C=C(Cl)C4=CC(=O)[C@@H]5C[C@@H]5[C@]4(C)[C@H]3CC[C@@]21C,Potency,[1],"inconclusive: 68.5 µM [cytotoxic, single point]"
C/C=C/C(=O)Oc1c(CCCCCC(C)C)cc([N+](=O)[O-])cc1[N+](=O)[O-],Potency,[7],active: 19.3 µM
same,Potency,[8],active: 6.86 µM
same,Potency,[9],inactive
same,Potency,[3],active: 17.4 µM
COCCCN,Potency,[6],inactive
C=C(C)CNCC,Potency,[6],"inconclusive: 95.3 µM [inhibitor, partial curve, poor fit]"
COc1ccc2[nH]cc(CCNC(C)=O)c2c1,Potency,[5],"inconclusive: 62.1 µM [activator, partial curve, poor fit]"
c1ccc(Nc2cccc3ccccc23)cc1,Potency,[9],active: 15.6 µM
same,Potency,[2],"inconclusive: 49.2 µM [activator, partial curve] and inconclusive: 34.4 µM [activator, single point]"
same,Potency,[3],"inconclusive: 44.2 µM [cytotoxic, partial curve]"
